Source: PMC11336835 (Heliyon, 2024)
*1 amine or outer side, *2 acyl side, *3 side chain or, on linkers, in order; H or OH if unused. Where a SMILES comes first, the peptide text is derived from it. Bridges are numbered along the chain shown (N, C = ends). Roman numbers before positions name the chains, in order. [ ]: non-standard residue; d: D form. Actinocin(9to1) = Cc1c2oc3c(C)ccc(C(=O)[*:1])c3nc-2c(C(=O)[*:2])c(N)c1=O; NMeV = CN[C@H](C(=O)O)C(C)C; Sar = CNCC(=O)O

Test system: colorectal adenocarcinoma cell line (DLD-1)
Details: ratio of DLD-1 IC50 to M. tuberculosis IC50

## Cc1c2oc3c(C)ccc(C(=O)N[C@@H]4C(=O)N[C@H](C(C)C)C(=O)N5CCC[C@H]5C(=O)N(C)CC(=O)N(C)[C@@H](C(C)C)C(=O)O[C@@H]4C)c3nc-2c(C(=O)N[C@@H]2C(=O)N[C@H](C(C)C)C(=O)N3CCC[C@H]3C(=O)N(C)CC(=O)N(C)[C@@H](C(C)C)C(=O)O[C@@H]2C)c(N)c1=O [F5(23), actinomycin D] (I: T[dV]P[Sar][NMeV] / II: T[dV]P[Sar][NMeV]; ester I:1-I:C, II:1-II:C; linker I:N-II:N via Actinocin(9to1))
  Selectivity index (DLDI/M. tuberculosis): >1,100
